Assay results: article PMC3247280, “Oligomerization of ZFYVE27 (Protrudin) Is Necessary to Promote Neurite Extension” (PLoS ONE, 2011)
These are yes or no findings as the source states them, for the method shown. For some assays here: In cells and extracts the contact can be indirect. Some results given as binding are weak or reduced against the parent protein; the word gives no strength. Where a sequence is shown, tags or fusion partners need not be part of it. Blank lines part the entries; values can stand above or below the binder they belong to.

Experiments:
[1] = biological target: T1, ZFYVE27^WT (full-length ZFYVE27, E2- or c-Myc-tagged, in mammalian cells) (human) (UniProt Q5T4F4); assay: co-IP; NIH-3T3 transiently co-transfected; lysates immunoprecipitated with c-Myc tag antibody, immunoblot with E2 tag antibody; mock with non-specific IgG
T1 sequence: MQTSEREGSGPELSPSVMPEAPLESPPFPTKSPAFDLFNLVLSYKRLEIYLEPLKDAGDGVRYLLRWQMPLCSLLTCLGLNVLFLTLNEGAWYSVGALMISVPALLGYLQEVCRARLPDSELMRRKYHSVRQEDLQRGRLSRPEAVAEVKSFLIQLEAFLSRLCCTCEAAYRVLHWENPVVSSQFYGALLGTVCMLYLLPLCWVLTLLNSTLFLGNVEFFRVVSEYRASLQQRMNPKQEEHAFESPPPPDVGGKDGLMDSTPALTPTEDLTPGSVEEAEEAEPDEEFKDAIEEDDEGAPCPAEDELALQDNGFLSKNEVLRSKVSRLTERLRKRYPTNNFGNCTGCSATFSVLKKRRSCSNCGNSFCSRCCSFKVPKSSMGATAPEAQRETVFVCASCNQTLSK

[2] = biological target: T1, ZFYVE27^WT (full-length ZFYVE27, E2- or c-Myc-tagged, in mammalian cells) (human); assay: co-IP; NIH-3T3 co-transfected with GFP-Spastin and an E2-tagged ZFYVE27 construct; immunoprecipitation with E2-tag antibody or rabbit IgG (mock), Western blot with GFP antibody
[3] = biological target: T2, E2-ZFYVE27^ΔHR3 (del 185-207aa) (human) (UniProt Q5T4F4); assay: as above
T2 sequence: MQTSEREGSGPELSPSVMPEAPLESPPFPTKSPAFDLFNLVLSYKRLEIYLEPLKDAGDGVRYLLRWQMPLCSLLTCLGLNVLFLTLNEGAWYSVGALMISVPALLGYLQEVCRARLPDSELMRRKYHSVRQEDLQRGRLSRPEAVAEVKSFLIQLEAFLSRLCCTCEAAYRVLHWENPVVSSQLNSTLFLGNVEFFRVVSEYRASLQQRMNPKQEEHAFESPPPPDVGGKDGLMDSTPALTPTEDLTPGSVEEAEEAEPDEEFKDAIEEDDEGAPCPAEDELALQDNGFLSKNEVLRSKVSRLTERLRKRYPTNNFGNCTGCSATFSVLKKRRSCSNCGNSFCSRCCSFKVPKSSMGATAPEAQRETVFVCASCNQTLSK

ZFYVE27^150-250 (human) = biological target: T3, ZFYVE27^150-250 (human) (UniProt Q5T4F4); assay: two-hybrid; direct Y2H: bait (pGBKT7, deletion constructs or full length) and prey (pGADT7, full-length ZFYVE27) co-transformed into AH109; growth on SD/-Leu/-Trp/-His/-Ade and X-α-Gal
T3 sequence: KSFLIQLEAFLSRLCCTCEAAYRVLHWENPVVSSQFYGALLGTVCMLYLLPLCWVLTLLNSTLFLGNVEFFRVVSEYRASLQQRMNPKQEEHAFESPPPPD

ZFYVE27^1-184 (human) = biological target: T4, ZFYVE27^1-184 (human) (UniProt Q5T4F4); assay: as above
T4 sequence: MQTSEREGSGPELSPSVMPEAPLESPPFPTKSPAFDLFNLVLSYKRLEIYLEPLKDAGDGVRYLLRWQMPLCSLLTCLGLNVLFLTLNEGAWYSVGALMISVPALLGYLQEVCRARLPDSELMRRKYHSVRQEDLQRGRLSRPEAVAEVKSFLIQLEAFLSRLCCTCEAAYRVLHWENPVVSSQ

[4] = biological target: T5, ZFYVE27-ΔHR3 (deletion of HR3 in ZFYVE27^1-335 construct) (human) (UniProt Q5T4F4); assay: as above
T5 sequence: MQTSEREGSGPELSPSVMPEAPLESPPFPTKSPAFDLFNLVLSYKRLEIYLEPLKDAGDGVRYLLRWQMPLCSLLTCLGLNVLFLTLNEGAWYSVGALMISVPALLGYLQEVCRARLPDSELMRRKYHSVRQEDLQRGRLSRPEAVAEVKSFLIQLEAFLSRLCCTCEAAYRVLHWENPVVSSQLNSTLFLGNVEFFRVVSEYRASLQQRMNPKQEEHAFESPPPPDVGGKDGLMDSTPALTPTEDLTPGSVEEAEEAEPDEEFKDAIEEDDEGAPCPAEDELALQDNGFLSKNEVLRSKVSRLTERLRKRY

[5] = biological target: full-length human ZFYVE27 (yeast two-hybrid fusion) (human) (UniProt Q5T4F4); assay: as above
[6] = biological target: T6, E2-ZFYVE27^ΔN(150-404aa) (human) (UniProt Q5T4F4); assay: co-IP; NIH-3T3 transiently co-transfected; lysates immunoprecipitated with E2 tag antibody, immunoblot with c-Myc tag antibody; mock with non-specific IgG
T6 sequence: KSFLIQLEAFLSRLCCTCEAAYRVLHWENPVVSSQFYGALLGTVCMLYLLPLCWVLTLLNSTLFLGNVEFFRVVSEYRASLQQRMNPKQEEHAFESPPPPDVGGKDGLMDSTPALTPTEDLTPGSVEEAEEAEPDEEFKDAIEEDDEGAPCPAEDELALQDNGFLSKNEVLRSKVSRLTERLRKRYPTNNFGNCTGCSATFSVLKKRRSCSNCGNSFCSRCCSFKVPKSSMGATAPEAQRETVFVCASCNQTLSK

[7] = biological target: T1, ZFYVE27^WT (full-length ZFYVE27, E2- or c-Myc-tagged, in mammalian cells) (human); assay: as above
[8] = biological target: T2, E2-ZFYVE27^ΔHR3 (del 185-207aa) (human); assay: as above
[9] = biological target: T7, E2-ZFYVE27^ΔC(1-150aa) (human) (UniProt Q5T4F4); assay: as above
T7 sequence: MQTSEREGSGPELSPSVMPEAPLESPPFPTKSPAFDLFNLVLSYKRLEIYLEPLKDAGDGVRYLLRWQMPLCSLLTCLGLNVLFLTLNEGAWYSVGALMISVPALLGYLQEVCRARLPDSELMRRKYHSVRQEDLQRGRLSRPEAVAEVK

B1: E2-ZFYVE27^ΔC(1-150aa) (domain or fragment, UniProt Q5T4F4-2 1-150)
chain: MQTSEREGSGPELSPSVMPEAPLESPPFPTKSPAFDLFNLVLSYKRLEIYLEPLKDAGDGVRYLLRWQMPLCSLLTCLGLNVLFLTLNEGAWYSVGALMISVPALLGYLQEVCRARLPDSELMRRKYHSVRQEDLQRGRLSRPEAVAEVK
binding [1]: binds

B5: E2-ZFYVE27^ΔN(150-404aa) (domain or fragment, UniProt Q5T4F4-2 150-404)
chain: KSFLIQLEAFLSRLCCTCEAAYRVLHWENPVVSSQFYGALLGTVCMLYLLPLCWVLTLLNSTLFLGNVEFFRVVSEYRASLQQRMNPKQEEHAFESPPPPDVGGKDGLMDSTPALTPTEDLTPGSVEEAEEAEPDEEFKDAIEEDDEGAPCPAEDELALQDNGFLSKNEVLRSKVSRLTERLRKRYPTNNFGNCTGCSATFSVLKKRRSCSNCGNSFCSRCCSFKVPKSSMGATAPEAQRETVFVCASCNQTLSK
binding [1]: binds

B6: E2-ZFYVE27^ΔHR3 (del 185-207aa) (protein, UniProt Q5T4F4-2)
chain: MQTSEREGSGPELSPSVMPEAPLESPPFPTKSPAFDLFNLVLSYKRLEIYLEPLKDAGDGVRYLLRWQMPLCSLLTCLGLNVLFLTLNEGAWYSVGALMISVPALLGYLQEVCRARLPDSELMRRKYHSVRQEDLQRGRLSRPEAVAEVKSFLIQLEAFLSRLCCTCEAAYRVLHWENPVVSSQLNSTLFLGNVEFFRVVSEYRASLQQRMNPKQEEHAFESPPPPDVGGKDGLMDSTPALTPTEDLTPGSVEEAEEAEPDEEFKDAIEEDDEGAPCPAEDELALQDNGFLSKNEVLRSKVSRLTERLRKRYPTNNFGNCTGCSATFSVLKKRRSCSNCGNSFCSRCCSFKVPKSSMGATAPEAQRETVFVCASCNQTLSK
binding [1]: binds

Other lines, results leading:

binding [2]: binds
binding [3]: binds
B2: GFP-Spastin (protein, UniProt Q9UBP0 1-616)
chain: MNSPGGRGKKKGSGGASNPVPPRPPPPCLAPAPPAAGPAPPPESPHKRNLYYFSYPLFVGFALLRLVAFHLGLLFVWLCQRFSRALMAAKRSSGAAPAPASASAPAPVPGGEAERVRVFHKQAFEYISIALRIDEDEKAGQKEQAVEWYKKGIEELEKGIAVIVTGQGEQCERARRLQAKMMTNLVMAKDRLQLLEKMQPVLPFSKSQTDVYNDSTNLACRNGHLQSESGAVPKRKDPLTHTSNSLPRSKTVMKTGSAGLSGHHRAPSYSGLSMVSGVKQGSGPAPTTHKGTPKTNRTNKPSTPTTATRKKKDLKNFRNVDSNLANLIMNEIVDNGTAVKFDDIAGQDLAKQALQEIVILPSLRPELFTGLRAPARGLLLFGPPGNGKTMLAKAVAAESNATFFNISAASLTSKYVGEGEKLVRALFAVARELQPSIIFIDEVDSLLCERREGEHDASRRLKTEFLIEFDGVQSAGDDRVLVMGATNRPQELDEAVLRRFIKRVYVSLPNEETRLLLLKNLLCKQGSPLTQKELAQLARMTDGYSGSDLTALAKDAALGPIRELKPEQVKNMSASEMRNIRLSDFTESLKKIKRSVSPQTLEAYIRWNKDFGDTTV

binding (ZFYVE27^150-250 (human)): binds
binding (ZFYVE27^1-184 (human)): binds weakly
binding [4]: no binding
binding [5]: binds
B3: full-length human ZFYVE27 (yeast two-hybrid fusion) (protein, UniProt Q5T4F4-2 1-404)
chain: MQTSEREGSGPELSPSVMPEAPLESPPFPTKSPAFDLFNLVLSYKRLEIYLEPLKDAGDGVRYLLRWQMPLCSLLTCLGLNVLFLTLNEGAWYSVGALMISVPALLGYLQEVCRARLPDSELMRRKYHSVRQEDLQRGRLSRPEAVAEVKSFLIQLEAFLSRLCCTCEAAYRVLHWENPVVSSQFYGALLGTVCMLYLLPLCWVLTLLNSTLFLGNVEFFRVVSEYRASLQQRMNPKQEEHAFESPPPPDVGGKDGLMDSTPALTPTEDLTPGSVEEAEEAEPDEEFKDAIEEDDEGAPCPAEDELALQDNGFLSKNEVLRSKVSRLTERLRKRYPTNNFGNCTGCSATFSVLKKRRSCSNCGNSFCSRCCSFKVPKSSMGATAPEAQRETVFVCASCNQTLSK

binding [6]: binds
binding [7]: binds
binding [8]: binds
binding [9]: binds
binding [1]: binds
B4: ZFYVE27^WT (full-length ZFYVE27, E2- or c-Myc-tagged, in mammalian cells) (natural protein, human, UniProt Q5T4F4-2 1-404, looked up)
chain: MQTSEREGSGPELSPSVMPEAPLESPPFPTKSPAFDLFNLVLSYKRLEIYLEPLKDAGDGVRYLLRWQMPLCSLLTCLGLNVLFLTLNEGAWYSVGALMISVPALLGYLQEVCRARLPDSELMRRKYHSVRQEDLQRGRLSRPEAVAEVKSFLIQLEAFLSRLCCTCEAAYRVLHWENPVVSSQFYGALLGTVCMLYLLPLCWVLTLLNSTLFLGNVEFFRVVSEYRASLQQRMNPKQEEHAFESPPPPDVGGKDGLMDSTPALTPTEDLTPGSVEEAEEAEPDEEFKDAIEEDDEGAPCPAEDELALQDNGFLSKNEVLRSKVSRLTERLRKRYPTNNFGNCTGCSATFSVLKKRRSCSNCGNSFCSRCCSFKVPKSSMGATAPEAQRETVFVCASCNQTLSK
notes: numbers count on: this 404-residue isoform; Each copy carries only one tag: E2 (vector pQM-N-Tag A) or six c-Myc tags (vector pCS2-myc); The two differently tagged copies are written as one molecule because the protein is tested against itself; With the E2-tagged deletion constructs the c-Myc copy was used; with GFP-Spastin and in the sucrose gradient the E2 copy; also called E2-ZFYVE27^WT; …
